Out of some 310,000 compounds screened, about 14,000 (4.5%) showed an effect of 50% or more. The effect is printed as a negative number. This is one part of the list.
molecular target: human ether-à-go-go-related gene (hERG) potassium channel (human, UniProt Q12809); test: primary screen, population patch clamp on CHO cells stably expressing hERG
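Note: peak tail current of the secondary pulse compared with the same well before compound.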

Sequence of human ether-à-go-go-related gene (hERG) potassium channel (Q12809 whole entry, looked up): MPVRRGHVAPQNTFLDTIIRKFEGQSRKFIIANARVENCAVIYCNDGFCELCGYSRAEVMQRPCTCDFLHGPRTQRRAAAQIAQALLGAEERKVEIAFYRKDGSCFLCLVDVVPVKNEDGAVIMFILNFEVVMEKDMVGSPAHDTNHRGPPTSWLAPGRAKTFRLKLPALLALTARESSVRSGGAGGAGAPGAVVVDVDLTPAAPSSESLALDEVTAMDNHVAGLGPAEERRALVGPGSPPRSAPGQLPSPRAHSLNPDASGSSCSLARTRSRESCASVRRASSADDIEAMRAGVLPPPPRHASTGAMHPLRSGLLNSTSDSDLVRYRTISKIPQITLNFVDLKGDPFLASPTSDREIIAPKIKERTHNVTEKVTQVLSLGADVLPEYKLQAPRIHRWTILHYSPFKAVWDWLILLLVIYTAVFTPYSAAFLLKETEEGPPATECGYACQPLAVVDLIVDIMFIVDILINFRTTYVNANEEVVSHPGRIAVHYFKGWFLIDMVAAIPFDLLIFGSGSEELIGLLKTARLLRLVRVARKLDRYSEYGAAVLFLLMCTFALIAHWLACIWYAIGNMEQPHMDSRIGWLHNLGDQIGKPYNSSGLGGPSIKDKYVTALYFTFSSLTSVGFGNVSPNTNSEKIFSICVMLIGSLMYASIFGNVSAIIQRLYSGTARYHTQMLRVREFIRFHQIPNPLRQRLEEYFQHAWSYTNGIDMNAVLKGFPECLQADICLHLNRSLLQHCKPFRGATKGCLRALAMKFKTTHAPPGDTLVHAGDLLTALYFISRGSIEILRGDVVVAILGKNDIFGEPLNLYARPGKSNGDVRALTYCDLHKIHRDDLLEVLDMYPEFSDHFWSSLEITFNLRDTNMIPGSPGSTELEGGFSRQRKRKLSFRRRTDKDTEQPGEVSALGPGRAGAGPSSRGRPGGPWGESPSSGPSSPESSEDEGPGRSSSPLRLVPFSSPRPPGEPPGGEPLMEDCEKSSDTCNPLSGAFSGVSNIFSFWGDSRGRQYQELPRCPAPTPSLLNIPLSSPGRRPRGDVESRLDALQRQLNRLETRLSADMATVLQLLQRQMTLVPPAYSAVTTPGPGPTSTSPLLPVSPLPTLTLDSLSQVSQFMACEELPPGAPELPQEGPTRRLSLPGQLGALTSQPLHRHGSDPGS

SMILES	hERG current change (%, negative = inhibition) at 10uM
COC(Cn1c(C)c(C(C)=O)c(C(C)=O)c1C)OC	6%
Cn1c(SCC(=O)Nc2cccc(F)c2)nnc1-c1cccnc1	-33.1%
CC(C)OCCCNC(=O)C1CCC(CNS(=O)(=O)c2cccc3nsnc23)CC1 (stereo not shown)	-10.9%
CNc1ccc(C(=O)c2ccccc2C(=O)O)cc1[N+](=O)[O-]	33.8%
Cc1cccc(-c2noc(CCCC(=O)Nc3cccnc3)n2)c1	-11.6%
CCC1CCCCN1CCCNC(=O)c1ccc2nc(N3CCCCC3)sc2c1 (stereo not shown)	-34%
O=[N+]([O-])c1ccc(C2CN=C(Nc3ccccc3)S2)cc1 (stereo not shown)	-60.2%
CCOC(=O)C1CCN(c2nc(C)cc(C)c2C#N)CC1	-3.93%
Cc1cc(C)nc(SCc2nc3ncccn3c2Br)n1	-2.09%
Cc1cc(C)n2nc(C(=O)OCC(=O)N(C)Cc3ccccc3)nc2n1	0.803%
O=C(NC1CCCC1)C(c1ccco1)N(C(=O)c1ccco1)c1ccccc1 (stereo not shown)	-4.89%
Cn1c(SCC(=O)Nc2cc(S(=O)(=O)N3CCOCC3)ccc2N2CCOCC2)nnc1-c1ccncc1	11.4%
CCN(CC)c1ccc(/C=N/NC(=O)C(O)c2ccccc2)cc1 (stereo not shown)	1.71%
COc1ccccc1-n1c(CNC(=O)c2cccs2)n[nH]c1=S	23.8%
COc1ccc(S(=O)(=O)NC(C)C(=O)NCc2cccnc2)cc1OC (stereo not shown)	14.9%
O=C(c1cc([N+](=O)[O-])ccc1N1CCCCC1)N1CCCCC1	-17.5%
CCn1c(=O)n(CC(=O)NCc2ccccc2OC)c(=O)c2ccccc21	8.2%
COc1ccccc1CNC(=O)c1ccc(-c2ccccc2Cl)o1	4.13%
COc1ccc(C)cc1S(=O)(=O)N(C)CC(N)=O	22.7%
COC(=O)Nc1nc2ccc(SC(C)C)cc2[nH]1	13.4%
CCOC(=O)C1C(=O)NC2(C)CC1c1cc(OC)ccc1O2 (stereo not shown)	6.33%
COc1ccc(C(=O)O)cc1S(=O)(=O)Nc1cccc(C(F)(F)F)c1	-7.21%
Cc1ccc(-n2nc3c(c2NC(=O)c2c(F)cccc2Cl)CS(=O)(=O)C3)cc1C	-31.7%

SMILES	hERG current change (%, negative = inhibition) at 10uM
C=CCN1CC(c2nc3ccccc3n2Cc2ccccc2)CC1=O (stereo not shown)	-13.8%
Cc1cc(C)n(CC(=O)N/N=C/c2ccc(C)o2)n1	-3.72%
CCN(CC)C(=O)c1ccc(NC(=O)c2cccc(S(=O)(=O)N3CCN(Cc4ccccc4)CC3)c2)cc1	-26.2%
COc1ccc(NC(=O)c2ccc3ccccc3c2)cc1	11%
CCO[C@H]1c2c(ccc3ccc(=O)oc23)OC(C)(C)[C@@H]1O	20.9%
CCCc1cc(C(N)=S)ccn1	18.1%
Cc1ccc(/C=N/NC(=O)CNC(=O)c2ccc(S(=O)(=O)N(C)C)cc2)cc1	9.13%
Cc1ccc(C=Nc2cc([N+](=O)[O-])ccc2C)s1	9.91%
CC(NC(=O)c1ccc(Cl)s1)C1CCCO1 (stereo not shown)	12.7%
COc1ccc(C2=NN(C(=O)CCC(=O)O)C(c3ccccc3F)C2)cc1 (stereo not shown)	-1.97%
O=C(/C=C/c1ccccc1)NC(=S)NNS(=O)(=O)c1ccccc1	9.78%
O=S(=O)(NC1=NCCCCC1)c1ccccc1Cl	14.7%
COc1ccc(OC)c(/C=C/C(=O)Nc2cccc(S(=O)(=O)N3CCCC3)c2)c1	23.4%
CCOC(=O)c1sc2nc3c(cc2c1N)COC(C)(C)C3	18.7%
COc1ccc(/C=C2\SC(N3CCCCC3)=NC2=O)cc1OC	-2.88%
CC(C)c1ccc(OCC(=O)NNC(=S)NC(=O)c2cccs2)c(Br)c1	11.3%
Cc1ccc2c(CN3CCC(C)CC3)cc(=O)oc2c1	-50%
COC(=O)[C@H](CC(C)C)NS(=O)(=O)c1ccccc1	2.21%
Cc1ccc(OCC(=O)Nn2cnnc2)c(Br)c1	1.46%
Cc1c(Cl)cccc1-n1c(SCC(=O)N2CCC(C(=O)O)CC2)nc2ccccc2c1=O	8.42%
Cc1ccc(F)cc1CNC(=O)c1cc(COc2ccc3ncccc3c2)on1	5.04%
CCOC(=O)C1CCN(C(=O)c2ccccc2N(C)S(=O)(=O)c2ccccc2)CC1	-7.23%
COc1cc(CNCC2CCCO2)ccc1OCC(N)=O.Cl (stereo not shown)	16.3%
